The results in this text go back to patent US7176277 (BURNHAM INSTITUTE, dated 2007).

One assay has as its target T1, Bcl-2 (UniProt P10415).
T1 construct: The residue numbers used for the mutants (Tyr108, Leu137, Gly145, Arg146, TM 205-239) fit human Bcl-2 alpha; also called full-length Bcl-2; ^35S-labeled Bcl-2
The assay is described as follows: GST pull-down, SDS-PAGE autoradiography.

A further assay addresses T2, TR3 (human, UniProt P22736).
T2 construct: Full-length TR3, either endogenous in human cell lines (LNCaP, H460) or synthesized in vitro and ^35S-labeled; also called orphan receptor TR3; nur77
The assay is described as follows: GST pull-down, SDS-PAGE autoradiography.

Bcl-2, sequence (P10415 whole entry): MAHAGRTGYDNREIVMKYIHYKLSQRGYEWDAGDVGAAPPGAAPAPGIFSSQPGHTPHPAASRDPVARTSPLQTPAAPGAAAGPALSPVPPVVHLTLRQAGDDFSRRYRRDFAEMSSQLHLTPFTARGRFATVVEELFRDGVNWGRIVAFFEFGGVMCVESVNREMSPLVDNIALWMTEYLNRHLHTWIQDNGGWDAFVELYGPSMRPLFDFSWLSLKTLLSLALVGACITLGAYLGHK
TR3, sequence (P22736 whole entry): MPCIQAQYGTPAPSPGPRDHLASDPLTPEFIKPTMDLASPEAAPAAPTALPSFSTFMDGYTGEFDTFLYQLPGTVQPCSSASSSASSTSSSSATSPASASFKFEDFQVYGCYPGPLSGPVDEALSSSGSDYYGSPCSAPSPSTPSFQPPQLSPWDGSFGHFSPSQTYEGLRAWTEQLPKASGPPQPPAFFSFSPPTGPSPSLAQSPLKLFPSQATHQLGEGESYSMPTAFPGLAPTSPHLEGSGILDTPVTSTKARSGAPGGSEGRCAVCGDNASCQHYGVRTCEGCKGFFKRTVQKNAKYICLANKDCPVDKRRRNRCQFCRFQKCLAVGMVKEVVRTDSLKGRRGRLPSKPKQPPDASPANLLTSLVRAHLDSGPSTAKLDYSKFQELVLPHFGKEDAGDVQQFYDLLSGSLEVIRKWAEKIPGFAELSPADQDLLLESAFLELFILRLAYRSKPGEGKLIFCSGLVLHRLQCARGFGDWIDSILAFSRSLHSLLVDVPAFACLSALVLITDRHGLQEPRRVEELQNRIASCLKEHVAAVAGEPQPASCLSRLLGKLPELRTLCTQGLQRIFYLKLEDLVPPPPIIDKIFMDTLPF

B1: GST (other)
chain: not shown
notes: Control protein in the GST pull-down
As for B1, the binding result with Bcl-2 and in the assay with TR3 was “no binding” each time.
